Some of the results follow. These are noisy estimates, calculated here from bound and input reads.
molecular target: T1, Pho4 (S. cerevisiae) (UniProt P07270); experiment: relative binding free energy (BET-seq); higher = weaker binding; details: reference: library average
T1 sequence: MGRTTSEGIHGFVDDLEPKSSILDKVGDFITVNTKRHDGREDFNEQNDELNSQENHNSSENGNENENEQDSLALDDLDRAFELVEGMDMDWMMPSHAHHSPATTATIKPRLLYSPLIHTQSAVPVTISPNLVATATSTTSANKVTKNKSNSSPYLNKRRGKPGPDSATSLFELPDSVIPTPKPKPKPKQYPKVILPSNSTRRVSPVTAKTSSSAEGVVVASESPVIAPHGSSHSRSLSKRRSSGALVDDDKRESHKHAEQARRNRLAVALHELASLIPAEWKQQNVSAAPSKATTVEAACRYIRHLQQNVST

| Sequence | relative binding free energy |
| --- | --- |
| CTCAGCACGTGTGGGG | -0.03 kcal/mol |
| CGGGTCACGTGGATTT | 0.15 kcal/mol |
| AGGTGCACGTGTGTGT | 0 kcal/mol |
| TTGGTCACGTGTATGA | 0.01 kcal/mol |
| GGGTACACGTGATGTG | 0.25 kcal/mol |
| TTTGGCACGTGCGGTC | -0.13 kcal/mol |
| GGATGCACGTGTGTTC | 0.06 kcal/mol |
| GGATACACGTGGGCGG | -0.01 kcal/mol |
| CGCAACACGTGGGTGT | -0.08 kcal/mol |
| TTGGGCACGTGTAGAA | -0.07 kcal/mol |
| CGTGTCACGTGGGTGA | -0.09 kcal/mol |
| ATTTGCACGTGGGGCA | -0.24 kcal/mol |
| AATTTCACGTGAGTGT | 0.27 kcal/mol |
| AGGGCCACGTGGTTGT | -0.11 kcal/mol |
| TGATTCACGTGGGCGA | 0.24 kcal/mol |
| AGCGTCACGTGGTTGT | -0.04 kcal/mol |
| TGGTTCACGTGTAGTT | 0.37 kcal/mol |
| TTCGGCACGTGTGGTA | -0.06 kcal/mol |
| CGTGGCACGTGATTGA | 0 kcal/mol |
| ATGAGCACGTGTTTCG | -0.06 kcal/mol |
| GGTGCCACGTGATTTT | 0.13 kcal/mol |
| CTTATCACGTGGGAGG | 0.07 kcal/mol |
| TAGGACACGTGTTTGG | 0.01 kcal/mol |
| GAAGGCACGTGTGGCT | -0.09 kcal/mol |
| GGATGCACGTGGATTT | -0.07 kcal/mol |

| Sequence | relative binding free energy |
| --- | --- |
| CCATTCACGTGTGGGG | 0.1 kcal/mol |
| AATAACACGTGAGTTG | 0.17 kcal/mol |
| GTAGGCACGTGTATGA | -0.18 kcal/mol |
| TTGGACACGTGGAGGT | 0.02 kcal/mol |
| TTATGCACGTGAGGCT | 0.28 kcal/mol |
| AGGGGCACGTGGAGGT | -0.06 kcal/mol |
| AGTGTCACGTGGTTAG | 0.04 kcal/mol |
| TATTGCACGTGGACTG | 0.08 kcal/mol |
| AGTAACACGTGCTGTT | -0.12 kcal/mol |
| AGTGGCACGTGTGAGG | 0 kcal/mol |
| CTGGTCACGTGTAAGT | 0.12 kcal/mol |
| ATTGGCACGTGTGCGC | -0.02 kcal/mol |
| ATATTCACGTGGTTGA | 0.16 kcal/mol |
| CTTTGCACGTGGTATT | -0.08 kcal/mol |
| GTGGACACGTGACTGG | 0.08 kcal/mol |
| TGCGTCACGTGGGCTG | -0.12 kcal/mol |
| TATGTCACGTGGGCGC | -0.15 kcal/mol |
| GCGAGCACGTGGAGTG | -0.12 kcal/mol |
| AGCGGCACGTGACTGT | 0.13 kcal/mol |
| TTGAACACGTGAGTGT | 0.25 kcal/mol |
| ATATGCACGTGGGGTG | -0.25 kcal/mol |
| TGCTCCACGTGTGGTG | 0.09 kcal/mol |
| TTGTGCACGTGATAGG | 0 kcal/mol |
| TTATTCACGTGTAGGA | 0.26 kcal/mol |
| TTGTTCACGTGGTACG | 0.2 kcal/mol |

| Sequence | relative binding free energy |
| --- | --- |
| CGTGGCACGTGGGAGG | -0.2 kcal/mol |
| AGGGTCACGTGGCGAG | -0.01 kcal/mol |
| AGTGTCACGTGGTTGT | 0.02 kcal/mol |
| TGACCCACGTGTGTGT | -0.07 kcal/mol |
| GGTTTCACGTGGAGTG | 0.24 kcal/mol |
| CGTGTCACGTGTGATG | 0.14 kcal/mol |
| GCTGTCACGTGTTTAA | 0.35 kcal/mol |
| AATAACACGTGGATGT | 0.12 kcal/mol |
| ATCTGCACGTGTGGTT | 0.06 kcal/mol |
| TATGGCACGTGCGGGG | -0.26 kcal/mol |
| CTATTCACGTGATGTG | 0.3 kcal/mol |
| TGTAACACGTGGATGA | 0.09 kcal/mol |
| GGTGTCACGTGACCTG | 0.32 kcal/mol |
| TATTGCACGTGCGGGC | -0.1 kcal/mol |
| GTGGGCACGTGAGGTG | 0.17 kcal/mol |
| TTGTTCACGTGCTCTT | 0.05 kcal/mol |
| CGGGTCACGTGTGTGG | 0.19 kcal/mol |
| TTGCTCACGTGAGCGG | 0.35 kcal/mol |
| TCGGGCACGTGGTTAT | -0.17 kcal/mol |
| TCGGACACGTGGTGTT | -0.06 kcal/mol |
| TTATGCACGTGATGTG | 0.1 kcal/mol |
| TGTAGCACGTGTTGCG | -0.03 kcal/mol |
| GGGTTCACGTGATTTA | 0.39 kcal/mol |
| TGATCCACGTGGTTAG | 0.05 kcal/mol |
| GTACTCACGTGGGTTT | 0.14 kcal/mol |

| Sequence | relative binding free energy |
| --- | --- |
| GAAGTCACGTGATTAG | 0.24 kcal/mol |
| GTCGTCACGTGTGGCA | 0.24 kcal/mol |
| CTTGACACGTGGAGTG | -0.05 kcal/mol |
| CTTGGCACGTGCTGGT | -0.13 kcal/mol |
| ATAGTCACGTGATATG | 0.17 kcal/mol |
| TGGTGCACGTGCTTAA | -0.09 kcal/mol |
| TATAGCACGTGGAGTC | -0.11 kcal/mol |
| CTGGGCACGTGTAGGT | -0.09 kcal/mol |
| GGGTTCACGTGAAATC | 0.55 kcal/mol |
| ATTTTCACGTGAGCTA | 0.32 kcal/mol |
| GGCATCACGTGTGGTG | 0.13 kcal/mol |
| AGTTTCACGTGTGATG | 0.38 kcal/mol |
| GGGGTCACGTGTCGGT | 0.23 kcal/mol |
| ATGTTCACGTGTACAG | 0.16 kcal/mol |
| AGAGTCACGTGGGGGT | -0.02 kcal/mol |
| GTTAGCACGTGAATAG | 0.25 kcal/mol |
| ATGGGCACGTGAGCGT | -0.09 kcal/mol |
| TGCGGCACGTGGTTGA | -0.06 kcal/mol |
| TTAAGCACGTGAGGAT | 0.25 kcal/mol |
| AGTATCACGTGTCGGT | 0.16 kcal/mol |
| TATGTCACGTGTGTTA | 0.07 kcal/mol |
| GTTTGCACGTGTAATA | 0.19 kcal/mol |
| CCGGTCACGTGTGAGT | 0.36 kcal/mol |
| GCGAGCACGTGTGTTA | 0.02 kcal/mol |
| GGCGGCACGTGACGGG | 0.06 kcal/mol |

| Sequence | relative binding free energy |
| --- | --- |
| GTGCACACGTGGGTGC | -0.06 kcal/mol |
| TTTGACACGTGGATTA | 0.02 kcal/mol |
| CATTTCACGTGTAGGG | 0.17 kcal/mol |
| TTGTACACGTGTGTCA | 0.09 kcal/mol |
| CGTGGCACGTGTCAGT | -0.13 kcal/mol |
| GATTGCACGTGGTGTA | 0.05 kcal/mol |
| GTTCACACGTGGGCTA | 0.1 kcal/mol |
| CTTTGCACGTGGGTAA | -0.22 kcal/mol |
| AGTTCCACGTGGGGTA | -0.13 kcal/mol |
| GATGTCACGTGGGTTT | 0.1 kcal/mol |
| TCGGTCACGTGTGCGT | -0.04 kcal/mol |
| TAGTACACGTGTTTTA | 0.08 kcal/mol |
| ATTTACACGTGTAGCT | 0.12 kcal/mol |
| TGAATCACGTGACGTG | 0.36 kcal/mol |
| GCTATCACGTGGGTTT | 0.1 kcal/mol |
| TTAGGCACGTGGCGGT | -0.1 kcal/mol |
| GCGTTCACGTGGTTTG | 0.26 kcal/mol |
| GTTTTCACGTGGGCAC | 0.26 kcal/mol |
| GGAGACACGTGGCGGA | -0.1 kcal/mol |
| TGTCGCACGTGGTTTA | -0.13 kcal/mol |
| GATTTCACGTGGGACG | 0.25 kcal/mol |
| GGATTCACGTGGGTTG | 0.21 kcal/mol |
| TCGGGCACGTGGCGTG | -0.36 kcal/mol |
| GGGAGCACGTGGGCGT | -0.16 kcal/mol |
| GGTGGCACGTGTCAGT | -0.05 kcal/mol |

| Sequence | relative binding free energy |
| --- | --- |
| GGGGTCACGTGTCTAT | 0.27 kcal/mol |
| TGCTGCACGTGTAGAG | 0.1 kcal/mol |
| TTAGGCACGTGCTCGG | -0.21 kcal/mol |
| TCGTTCACGTGCTAGG | 0.28 kcal/mol |
| TGCGTCACGTGTCGTG | -0.06 kcal/mol |
| GATGCCACGTGTGTGT | 0.04 kcal/mol |
| CTAGTCACGTGTTGGG | 0.09 kcal/mol |
| AGTTGCACGTGTGAGT | 0.1 kcal/mol |
| ATTATCACGTGGTTAA | -0.01 kcal/mol |
| AGTGTCACGTGACGGG | 0.26 kcal/mol |
| TGAGGCACGTGGGTTT | -0.11 kcal/mol |
| TTTGCCACGTGGTTAG | -0.09 kcal/mol |
| TCTGTCACGTGGTTGT | 0.08 kcal/mol |
| TCGGTCACGTGGTGAA | 0.1 kcal/mol |
| TGGGGCACGTGACTAT | 0.11 kcal/mol |
| GGTGTCACGTGGGCGT | -0.03 kcal/mol |
| TCGTTCACGTGTATCG | 0.3 kcal/mol |
| GAACGCACGTGTTGTT | -0.01 kcal/mol |
| GGCTGCACGTGGGTAA | -0.12 kcal/mol |
| GTAGTCACGTGGGACG | 0.07 kcal/mol |
| GGGTGCACGTGCGTCT | -0.09 kcal/mol |
